# According to article PMC4336329 (PLoS ONE, 2015):
# The whole screen tested about 310,000 compounds, of which about 2,200 (0.71%) showed an effect of 50% or more. Effects have a minus sign here. The list shows a part of the results.
# Biological target: human ether-à-go-go-related gene (hERG) potassium channel (human, UniProt Q12809)
# Test: primary screen, population patch clamp on CHO cells stably expressing hERG
# human ether-à-go-go-related gene (hERG) potassium channel, sequence (Q12809 whole entry, looked up): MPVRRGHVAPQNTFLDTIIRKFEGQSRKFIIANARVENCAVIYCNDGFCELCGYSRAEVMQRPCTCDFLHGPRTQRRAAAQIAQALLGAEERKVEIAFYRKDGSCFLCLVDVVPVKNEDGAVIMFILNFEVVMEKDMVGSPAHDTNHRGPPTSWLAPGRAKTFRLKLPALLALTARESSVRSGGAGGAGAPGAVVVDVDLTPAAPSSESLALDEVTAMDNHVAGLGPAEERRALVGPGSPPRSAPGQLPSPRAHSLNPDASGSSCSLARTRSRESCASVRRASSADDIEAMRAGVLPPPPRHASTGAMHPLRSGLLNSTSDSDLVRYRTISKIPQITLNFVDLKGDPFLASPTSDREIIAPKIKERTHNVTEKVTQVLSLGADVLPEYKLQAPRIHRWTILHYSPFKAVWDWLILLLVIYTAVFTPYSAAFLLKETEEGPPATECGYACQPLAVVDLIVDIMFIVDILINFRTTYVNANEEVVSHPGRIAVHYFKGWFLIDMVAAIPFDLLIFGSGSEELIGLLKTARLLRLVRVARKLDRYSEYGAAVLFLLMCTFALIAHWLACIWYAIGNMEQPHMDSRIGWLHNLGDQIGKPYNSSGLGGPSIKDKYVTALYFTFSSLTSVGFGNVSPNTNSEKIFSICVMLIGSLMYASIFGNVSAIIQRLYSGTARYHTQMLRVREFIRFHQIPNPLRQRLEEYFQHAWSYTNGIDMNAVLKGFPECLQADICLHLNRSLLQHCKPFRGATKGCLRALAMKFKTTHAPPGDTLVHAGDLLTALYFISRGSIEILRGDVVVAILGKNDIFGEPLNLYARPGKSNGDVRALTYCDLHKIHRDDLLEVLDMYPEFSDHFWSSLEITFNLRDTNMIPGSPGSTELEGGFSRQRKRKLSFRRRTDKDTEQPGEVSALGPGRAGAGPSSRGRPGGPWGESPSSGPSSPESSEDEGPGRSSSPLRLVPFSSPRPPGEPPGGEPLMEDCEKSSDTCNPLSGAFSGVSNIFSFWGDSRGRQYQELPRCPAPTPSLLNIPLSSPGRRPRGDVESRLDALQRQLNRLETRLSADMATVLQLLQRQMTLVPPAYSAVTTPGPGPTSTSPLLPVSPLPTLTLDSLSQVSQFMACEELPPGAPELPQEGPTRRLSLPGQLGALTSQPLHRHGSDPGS
row,SMILES,"hERG current change (%, negative = inhibition) at 1uM [%]"
1,CCOC(=O)N1CCN(C(=O)C2CCC(CNS(=O)(=O)c3ccc(Cl)cc3)CC2)CC1 (stereo not shown),3.08
2,O=C(Nc1ccc(-c2nc3cccnc3s2)cc1)c1ccc(Cl)nc1,7.19
3,COc1ccc(CN2C3CCC2CC(NC(=O)c2cc(OC)c(OC)c(OC)c2)C3)cc1 (stereo not shown),7
4,Cc1cc(-c2ccccc2)n(-c2cc(N/N=C/c3ccccc3O)ncn2)n1,-0.826
5,CCOC(=O)/C=C1\CC(=O)Nc2cc(C)c(C)cc2N1,-4.77
6,COc1cc(SC)ccc1C(=O)Nc1nc(C)cc(C)n1,16.4
7,CCCC(=O)N(CCN1CCOCC1)c1nc2ccc(OCC)cc2s1.Cl,5.85
8,O=C(O)c1ccc(CSc2nc3ccc(NC(=O)c4ccccc4C(=O)O)cc3s2)cc1,23.1
9,CCc1cc(=O)oc2cc(OCC(=O)NCCCn3ccnc3)c(Cl)cc12,20.2
10,O=S(=O)(Nc1ccc(S(=O)(=O)Nc2nccs2)cc1)c1ccc(Br)cc1,20
11,Cc1ccc(C)c(CNS(=O)(=O)c2c(C)[nH]c(C)c2C(=O)N2CCCC2)c1,-21.1
12,COC(=O)c1nc(-c2ccccc2)oc1N1CCOCC1,13.1
13,C#CCOCCOCCOCCNc1nc(N2CCN(C(=O)[C@H]([C@@H](C)O)n3cc(CCCC[NH3+])nn3)CC2)nc(N2CCN(C(=O)[C@H](CCCC[NH3+])n3cc(CCC(=O)O)nn3)CC2)n1.[Cl-],-13.1
14,CC(C)C(NC(=O)C1CCCCC1)C(=O)NCCc1ccccc1 (stereo not shown),8.49
15,CCOc1ccc(C(=O)CCc2nc3ccccc3s2)cc1,-4.55
16,C=CCN(C(=O)Nc1ccc(Cl)cc1)C1CC(=O)N(c2ccc(OC)cc2)C1=O (stereo not shown),4.12
17,CC(C)(C)NC(=O)C1Cc2ccccc2CN1S(=O)(=O)c1ccc(F)cc1 (stereo not shown),3.91
18,COCCOC(=O)C1=C(C)NC(=O)NC1c1cn(-c2ccccc2)nc1-c1cccs1 (stereo not shown),-2.46
19,CN1C(=O)[C@H]2[C@@H](C3CC3)N3C(=O)CN(Cc4ccc(-c5ccccc5)cc4)C(=O)[C@@]3(C)[C@H]2C1=O,-13
20,CCOC(=O)N1CCN(C(=O)CCCCn2c(=S)[nH]c3ccsc3c2=O)CC1,5.21
21,Cc1ccc(C(=O)O/N=C/c2c(N3CCOCC3)n(C)c3ccccc23)cc1,3.23
22,CCN(Cc1ccccc1)C(=O)c1cc2c(=O)oc3ccc(C)cc3c2s1,8.04

row,SMILES,"hERG current change (%, negative = inhibition) at 1uM [%]"
1,COc1ccc(Br)cc1CN(C)CC(O)COc1ccc(Br)cc1 (stereo not shown),-4.15
2,O=C(NNc1cc(Cl)cc(Cl)c1)c1c(F)cccc1Cl,10.2
3,CN1CCN(CC(=O)Nc2ccccc2C(F)(F)F)CC1.O=C(O)C(=O)O,12.9
4,CCCc1nc2sc3c(SCC(=O)NCc4ccco4)ncnc3c2c2c1CCC2,5.4
5,O=C(Nc1ccccc1N1CCCC1)c1ccc(Cl)cc1Cl,4.5
6,Cc1ccc(NC(=O)COc2ccc3oc4c(c3c2)CCCC4)nc1,2.88
7,Cl.OC(C#CCN1CCOCC1)(c1ccccc1)C1CC1 (stereo not shown),21
8,COc1ccc(C(=O)/C=C/Nc2ccc(S(N)(=O)=O)cc2)cc1OC,14.9
9,CC#CCN1c2ccccc2[C@]23C[C@@H](C(=O)OC)N(C(=O)NCCBr)C2=NC(C(=O)OC)=C(C(=O)OC)[C@H]13,17.9
10,CCC(=O)N(C)CCc1cc2c(c(OC)c1/C=N/NC(=O)[C@H]1C[C@@H]1c1ccccc1)OCO2,11.5
11,CCOC(=O)c1ccc(NC(=O)CSc2nnc(CNC(=O)c3ccccc3F)o2)cc1,7.32
12,COc1ccc(-c2nc3ccccc3nc2-c2ccc(OC)cc2)cc1,8.2
13,COC(=O)c1ccc(N2CCCCC2)c(NC(=O)c2ccco2)c1,-0.798
14,COC(=O)c1cc(OC(=O)CCc2ccc(OC)c(OC)c2)cc(C(=O)OC)c1,14.9
15,CC1CCCCC1NC(=S)NC(=O)c1ccccc1Br (stereo not shown),3.64
16,O=C(NCCc1ccc(Cl)cc1)C1CCN(S(=O)(=O)c2cccc3nonc23)CC1,0.171
17,Cc1nc(N2CCC(C)CC2)c2c(C)c(C(=O)Nc3ccc(C(F)(F)F)cc3)sc2n1,15.6
18,CC(=O)c1ccc2c3c(cccc13)CC2,10.2
19,Cc1ccc(S(=O)(=O)c2nc(-c3cccs3)oc2SCC(N)=O)cc1,14.4
20,O=S(=O)(c1cccs1)N1CCN(c2ncccn2)CC1,-13.2
21,Cc1ccc(NC(=O)CNS(=O)(=O)c2ccc(F)cc2)cc1C,12.6
